The results in this text go back to the RNAGym collection of RNA variant scans (doi:10.7554/elife.90254).

Read counts are not given, so values of variants with three or more changes are uncertain.

First the molecules themselves.
B1: LINE1-full (parent)
chain: UACGUAGGUGGUUUUCCCCUGAUAGUGCUAAGGGGGCCUGGAAGUUUGGACUGGGCAGAGCUCAACACAGCGUGGCAAAGUGGCUGUGGCUAGACUGCCUCUCUGGAUUCCUCGUCACUCAGCAGGGCAUCUCUGAGAGAAAUGCC

In the data set the parent is B1. Description: self-cleavage, relative activity (ratio to wild type); higher = more cleavage; in vitro, sequencing; the parent is a self-cleaving ribozyme.
Turning to G40A U62C A107U, the self-cleavage turned out to be 0.02.

Consider A43G U73A C145U, for which the self-cleavage stood at 1.56.

Consider A43C U47C A136U, for which the self-cleavage worked out at 1.47.

For the variant A42G A67U G144A, the self-cleavage worked out at 0.27.

With A43G C66U U91C C99U U109C A142G, the self-cleavage was determined as 0.

Turning to G41U A69G A79U U100A U130C U132C, the self-cleavage amounted to 0.36.

With A42G C98U A129G, the self-cleavage came out at 0.

A42G A67G C113A: the self-cleavage is 0.27.

G40A A129G U143G: the self-cleavage worked out at 1.05.

A43G A57U U85C: the self-cleavage is 0.

For the variant A43G U52C G53U, the self-cleavage was determined as 1.2.

In the case of A43G U115A C116U A117C, the self-cleavage stood at 1.1.

As for A42U U85C G114A, the self-cleavage is 0.1.

As to A42C U81A U91A, the self-cleavage was found to be 0.96.

For the variant A42G A57U U104C U109A, the self-cleavage stood at 0.12.

In the case of A43U G58A A121U U130C A138G, the self-cleavage was 0.07.

As for A43G U73C G80A U85C, the self-cleavage was 0.28.

Regarding A43G G75A A77G A94G, the self-cleavage was 0.31.

Turning to A42G A67U U87A, the self-cleavage stood at 0.44.

On to A42G U62A A124U A136G, for which the self-cleavage was 0.07.

For the variant A42G U62C U132C A138G, the self-cleavage stood at 0.07.

Take G44C G58C C66U U91C C98A: the self-cleavage is 0.02.

Regarding A42G G105A U109C, the self-cleavage is 2.35.

In the case of A43G U73C A138G, the self-cleavage is 0.54.

With G41A A43G A67G, the self-cleavage amounted to 0.32.

In the case of A43U U47A U108C C118A, the self-cleavage stood at 1.41.

In the case of G40A U52A A59G A138G, the self-cleavage was 0.06.

As to A42G G97A U130C, the self-cleavage was 0.12.

As to A43G U96A A129G, the self-cleavage is 0.06.

For A43G A78U C84U U102A, the self-cleavage is 0.17.

Turning to G40U A69G U81C, the self-cleavage turned out to be 1.15.

Regarding A42G A64G U112C U143A, the self-cleavage is 0.

For A42G G127A A140G, the self-cleavage was found to be 0.69.

As to A43G U73C A136G, the self-cleavage came out at 2.42.

A43U U46C G83A A124U: the self-cleavage was 1.13.

For G40U U62C U102C, the self-cleavage amounted to 0.04.

With A43U U52C C66A A129G, the self-cleavage stood at 0.02.

For the variant A42U U62C A65G G114U, the self-cleavage was 0.02.

As for A43G U46A U96G U112C, the self-cleavage turned out to be 0.

For the variant G40A U96C A121U, the self-cleavage was found to be 0.05.

Regarding G41C A59G A77G U81A U130C, the self-cleavage came out at 0.

A43G A77G U143A: the self-cleavage was found to be 0.

With A42G G75C A136G, the self-cleavage was 0.43.

As to A43G A64U G80A U81G G82U, the self-cleavage was 0.82.

Regarding A42U U91C U96C U100C, the self-cleavage was 0.53.

As for A42G U46A U112A A117U A121G A142G, the self-cleavage is 1.12.

Take A42G A67G U85A: the self-cleavage came out at 0.12.

As to A43U A65U A92G, the self-cleavage is 0.02.

For the variant A43G G53A U100C U108C A117C U134C, the self-cleavage worked out at 2.3.

Take G40A A141G U143A: the self-cleavage was 0.48.

Regarding A43G A69C U91A U130C, the self-cleavage came out at 0.

As to A42G U119A A142G, the self-cleavage came to 1.15.

Consider A43U U47C A64G U96A U130A A141G, for which the self-cleavage came out at 0.11.

Regarding A42G A57G U119C G122A, the self-cleavage came out at 1.31.

As for A43G U47C U102A, the self-cleavage came out at 1.78.

Regarding A42G U45G A69U U109C A129G A140U, the self-cleavage was determined as 0.

In the case of A43U U62A A69G, the self-cleavage was determined as 0.09.

As for A43U U62C U100C U115C, the self-cleavage stood at 0.

Turning to A43U U47C A77G U96A U108C, the self-cleavage came to 0.

For A43G G74A A117U, the self-cleavage was 0.41.

For the variant A42G A69U A140G A142G, the self-cleavage stood at 0.03.

As to A43U A78G A124G, the self-cleavage is 0.6.

On to A42G U45C A69G, for which the self-cleavage was 0.92.

Regarding A42U G72A A142G, the self-cleavage came to 1.09.

Regarding A42U A77G A117G, the self-cleavage is 0.

On to A42G U91A A107U A117G, for which the self-cleavage was determined as 0.46.

On to A42G G72A U119C G137A, for which the self-cleavage was determined as 1.95.

With A43G U73C A141G, the self-cleavage was determined as 2.84.

In the case of G44A A50U A77G U87C, the self-cleavage is 0.14.

Turning to A43G A69U G70A, the self-cleavage was found to be 0.02.

As to A42G A65U A79U A92G G97A A141G A142G, the self-cleavage stood at 0.

For the variant A42G A69G U87A C120U U134C, the self-cleavage was 0.13.

Regarding G40A A129G A138U A140G, the self-cleavage is 0.8.

A43G U46C A59G C66U A141G: the self-cleavage came to 0.07.

On to A42G G72A A136G, for which the self-cleavage came out at 2.11.

Consider A42G U52A G82U U96C U130C A141G, for which the self-cleavage worked out at 0.15.

Consider A42G U85A U104C, for which the self-cleavage is 0.48.

On to A42G U87G A94G, for which the self-cleavage was 0.67.

Regarding A43G U96C C113U, the self-cleavage was determined as 0.17.

For the variant G41U A67G G75A U108C U132C, the self-cleavage was 0.37.

In the case of A42U U62C A117G, the self-cleavage came to 0.

With A42U A78U A142G C146A, the self-cleavage is 1.51.

As to A42G U45A U47A A129G A136G C146U, the self-cleavage worked out at 0.96.

Regarding A43G G82A U85A A117G A142G, the self-cleavage is 0.03.

On to A42G A92G U104C, for which the self-cleavage stood at 0.

As for A43G A64G U102C C131U, the self-cleavage worked out at 0.38.

Turning to A43G A94G U108A, the self-cleavage was determined as 0.39.

Take A43G U81A U91C: the self-cleavage came out at 0.48.

With A42G A57U U134C, the self-cleavage was determined as 0.16.

Consider A42G A79G U104A, for which the self-cleavage was 0.

Take A42G A69G U109C U112C: the self-cleavage is 0.

On to A42G U52A A65G A136G, for which the self-cleavage amounted to 0.11.

In the case of A43G U62C U132A, the self-cleavage is 0.

In the case of A42U U62G A65G U119C, the self-cleavage is 0.

In the case of A42C U73A A94G U109A, the self-cleavage amounted to 0.06.

As for A42U A65G C99U A138U, the self-cleavage was determined as 0.05.

A43U A65G U108C U134A A140C: the self-cleavage was found to be 0.

As for A43G A57G U91C, the self-cleavage is 0.

Regarding A43G A64G A140G, the self-cleavage was determined as 1.34.

In the case of A42G A124G A136G, the self-cleavage amounted to 0.97.

Consider A42G A77U U96C A140G A141U, for which the self-cleavage worked out at 0.09.

Consider A42G U62C A67G, for which the self-cleavage was determined as 0.

For A42G U102C G127U, the self-cleavage was found to be 1.2.

For the variant A43U G74A U102C U130C, the self-cleavage amounted to 1.23.

Take A43G U62C U104C: the self-cleavage came out at 0.15.

For the variant A42G A59U G125C, the self-cleavage is 1.46.

A42G U62C U100C U108C: the self-cleavage worked out at 0.66.

On to A42G A43U U119C U132C A138U, for which the self-cleavage worked out at 2.7.

Consider A42G G89A A140U, for which the self-cleavage stood at 0.08.

As for G41A A69G U91A A142G, the self-cleavage stood at 0.1.

For the variant A43G U85C A129U, the self-cleavage turned out to be 0.

Turning to G41A U47C G55A A57G A69U A136U, the self-cleavage was found to be 0.05.

On to A42U A57G A78U U85C, for which the self-cleavage was determined as 0.1.

For A42G A77U U96C U104C A140G, the self-cleavage was determined as 0.

On to A42G A64G U102C, for which the self-cleavage was determined as 0.77.

Consider A43G U73G U108C A117U, for which the self-cleavage was determined as 1.21.

As for A43G U102C A124U A129U, the self-cleavage was 0.94.

Regarding A42U A65G A138G, the self-cleavage came out at 0.04.

With A43G G53A A140U, the self-cleavage was found to be 0.82.

On to A43U A69G U96A A107U G137U, for which the self-cleavage worked out at 0.04.

A42G C68G A92G: the self-cleavage was 0.04.

In the case of A43U U73C A79G U130A, the self-cleavage came out at 1.11.

For A43U A94U U102C A140G, the self-cleavage came to 0.34.

As to A43U A57U G74U, the self-cleavage was found to be 0.09.

In the case of A42U A117U A124G U132C, the self-cleavage amounted to 1.58.

Regarding A43U A69U U73C U119C, the self-cleavage turned out to be 1.19.

In the case of G41U U85A U108C, the self-cleavage was 0.08.

With A42C A59U U132C, the self-cleavage stood at 0.54.

As for A43G A79G U134G, the self-cleavage worked out at 0.75.

On to A42G U119C A136U, for which the self-cleavage amounted to 1.16.

Regarding A42G C61U U100C, the self-cleavage turned out to be 0.1.

Consider A43G A77G U87C, for which the self-cleavage came out at 0.

Turning to A43G A79U A138G A141G, the self-cleavage amounted to 1.7.

For the variant A42G A121C G125A, the self-cleavage came to 2.37.

As to A43G U45C A65G C101U, the self-cleavage came out at 0.17.

As to A42G U81C U143C, the self-cleavage came out at 1.15.

Regarding A42G A43G G74A A78U A94G U100A C120U A138G, the self-cleavage stood at 0.31.

In the case of A43G C61U U132C U143C, the self-cleavage was 0.09.

Take A42U A79U U100C A140G: the self-cleavage is 2.47.

As to A43G U73C U85C, the self-cleavage is 0.

As for A42G U102C A140G, the self-cleavage was 1.39.

With A42G U62A A65G U102C A117U, the self-cleavage was found to be 0.

On to A42G U73G A94C, for which the self-cleavage is 0.

As for A42G U46A U134A C146U, the self-cleavage was 1.05.

Consider A43G U45C U62C, for which the self-cleavage amounted to 0.4.

As for A43G G93A A121G U130C, the self-cleavage was 0.

Take A43U U109C A138C: the self-cleavage was determined as 1.72.

Take A42G A69U C95G C116U U143A: the self-cleavage stood at 0.03.

For the variant A43G A59G A69G, the self-cleavage was found to be 0.

Regarding A42U U73C U132A, the self-cleavage amounted to 1.18.

For the variant A42G A124U A129G, the self-cleavage came to 1.34.

Take A42G U45C A121G: the self-cleavage was 1.08.

With A43U U45A U119C, the self-cleavage was found to be 1.84.

Regarding A42G A107G A140G, the self-cleavage was 2.45.

As to A43G U73A U87A A136G A140U A141G, the self-cleavage was 0.03.

For the variant A42U A92U C131A, the self-cleavage was found to be 0.37.

Regarding A42G U47A A65G A140U, the self-cleavage came out at 0.51.

On to A43G A57U A67U U85A, for which the self-cleavage worked out at 0.

For A42G U73A U130C, the self-cleavage was determined as 1.81.

A43G A64U A79C: the self-cleavage came to 0.46.

A42G A57G A77G A92U: the self-cleavage came out at 0.

As to A43G G55A U119C U143C, the self-cleavage stood at 0.

As to A43G G75A U100C U115A U130C G144A, the self-cleavage was determined as 1.69.

For the variant A43U A79G U91C U119A, the self-cleavage worked out at 0.41.

Consider A42G A67G U85C A141G, for which the self-cleavage is 0.61.

G44A A50U U87C: the self-cleavage was 0.15.

For the variant A43G C113U U143A, the self-cleavage turned out to be 0.84.
